Structures are written as SMILES. In all, about 110,000 compounds were measured (“z-score”: median about -0.1, highest 2% from about 2 on). The list shows a part of the results.

The assay has as its target Metabotropic glutamate receptor 8 (Rattus norvegicus) (UniProt P70579). As to the kind of experiment: rat mGluR8 modulators via GIRK flux, primary screen, cell-based, thallium flux, HTS (AID 488969). The settings on record: HEK293 rat mGluR8, GIRK (G protein-gated inwardly rectifying potassium channel) thallium flux, FluoZin2; at 10 µM; stronger effect = higher value; submaximal glutamate (EC20) added with thallium.
UniProt P70579, sequence (P70579 whole entry, looked up): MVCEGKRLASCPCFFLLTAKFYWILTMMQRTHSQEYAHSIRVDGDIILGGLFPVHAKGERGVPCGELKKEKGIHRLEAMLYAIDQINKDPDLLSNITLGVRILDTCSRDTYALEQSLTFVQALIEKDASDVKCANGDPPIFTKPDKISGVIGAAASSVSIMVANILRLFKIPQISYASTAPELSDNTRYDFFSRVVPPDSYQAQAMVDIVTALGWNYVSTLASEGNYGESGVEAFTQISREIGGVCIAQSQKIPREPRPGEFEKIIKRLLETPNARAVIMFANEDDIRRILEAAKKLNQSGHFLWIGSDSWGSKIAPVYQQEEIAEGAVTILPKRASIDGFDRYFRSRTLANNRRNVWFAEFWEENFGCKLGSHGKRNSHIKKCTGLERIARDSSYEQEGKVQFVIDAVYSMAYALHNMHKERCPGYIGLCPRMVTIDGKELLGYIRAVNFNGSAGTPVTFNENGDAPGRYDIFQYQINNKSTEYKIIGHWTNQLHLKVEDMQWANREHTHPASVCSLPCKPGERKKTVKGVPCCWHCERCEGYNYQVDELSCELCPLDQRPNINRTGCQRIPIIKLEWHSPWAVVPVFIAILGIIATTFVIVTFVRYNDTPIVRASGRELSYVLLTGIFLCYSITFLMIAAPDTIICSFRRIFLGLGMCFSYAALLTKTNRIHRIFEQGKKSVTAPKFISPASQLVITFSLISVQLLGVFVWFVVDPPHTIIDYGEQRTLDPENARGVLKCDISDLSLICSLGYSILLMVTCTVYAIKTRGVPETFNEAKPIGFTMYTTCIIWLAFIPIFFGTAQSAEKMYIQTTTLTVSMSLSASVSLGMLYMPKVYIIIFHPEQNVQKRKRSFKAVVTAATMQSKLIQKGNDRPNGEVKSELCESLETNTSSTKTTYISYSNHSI
With `O=C1/C(=C/c2cccnc2)Oc2cc(OS(=O)(=O)c3ccccc3)ccc21`, the z-score is -0.53.

As for `Cc1ccc(OCC(=O)Nc2cccc(C)n2)c(C)c1`, the z-score is -0.204.

`CC1(C)OC(=O)C(=CNCC(=O)NCC(=O)O)C(=O)O1` gave a z-score of 0.786.

As to `COc1ccc(/C=N/OCC(=O)Nc2cc(C)on2)cc1OC`, the z-score is -0.185.

Turning to `Cn1c(=O)c2c(nc(CN3CCN(C(=O)c4ccco4)CC3)n2Cc2cccc(Cl)c2)n(C)c1=O`, the z-score stood at 0.227.

With `CCN(CC)CCn1c(O)c(N=O)c2ccccc21`, the z-score was -1.15.

In turn, `Cc1ccc(OCCN2C(=O)CSC2=O)cc1` showed a z-score of -0.582.

As for `CCOC1=NS(=O)(=O)c2ccccc21`, the z-score was 0.388.

For the compound `CCCc1ccc(OCc2nc(-c3ccc(NC(=O)c4cccs4)cc3)no2)cc1`, the z-score was -0.0525.

Compound `COc1ccc(-c2[nH]c(-c3ccc(C(=O)O)cc3)nc2-c2ccccc2)cc1` displayed a z-score of -0.435.

For the compound `CC(/C=C/c1cccs1)=C\C(=O)O`, the z-score was found to be 0.0251.

With `COC(=O)c1cc(OC)c(OC)cc1NC(=O)Nc1ccc(OC)cc1`, the z-score was -0.0386.

`O=C(Nc1ccc(N2CCOCC2)c(Cl)c1)c1c(F)c(F)c(F)c(F)c1F` registered a z-score of -0.114.

Take `Cc1c(C(=O)OCC(=O)N2CC(=O)Nc3ccccc32)oc2ccc(Br)cc12`: the z-score was 0.355.

Turning to `CCc1nnc(NC(=O)CSc2ncnc3c2oc2ccccc23)s1`, the z-score turned out to be 0.321.

In turn, `CCc1nc(SCC(N)=O)c2c(=O)n(C)c(=O)n(C)c2n1` gave a z-score of -0.178.

For the compound `Nc1nc(-c2cccc(Br)c2)cs1`, the z-score was -0.135.

The compound `CCOC(=O)N1CCN(c2nc(C(F)(F)F)nc3c(C)cc(C)cc23)CC1` displayed a z-score of -0.0403.

`CCOC(=O)c1c(NC(=O)CN2CCN(c3ccc(Cl)cc3)CC2)sc(C)c1C` returned a z-score of -0.132.

As for `O=C(CN1C(=O)S/C(=C\C=C\c2ccccc2)C1=O)Nc1cccc(O)c1`, the z-score is 0.0952.

In turn, `O=C(O)c1ccc(CSc2nnnn2C2CCCCC2)cc1` displayed a z-score of -0.14.

On to `CC(=O)N1N=C(c2cccc([N+](=O)[O-])c2)OC1(C)CC(=O)Nc1ccccc1` (stereo not given), for which the z-score amounted to 0.167.

With `CCc1ccccc1N(CC(=O)NCc1ccco1)C(=O)c1snc(C(N)=O)c1N`, the z-score was -0.637.

Regarding `CC(NC(=O)Nc1ccccc1)c1ccccc1` (stereo not given), the z-score was 0.179.

`O=C(CN1C(=O)COc2ccccc21)NCCCN1CCN(Cc2ccccc2)CC1` showed a z-score of -0.299.

The compound `COCC(C)n1c(C)cc(C(=O)COC(=O)c2ccc(N3CCCC3=O)cc2)c1C` (stereo not given) had a z-score of -0.164.

For the compound `c1ccc(Cc2nnc3sc(-c4ccc5c(c4)OCO5)nn23)cc1`, the z-score amounted to 0.681.

`COc1ccc(C(=O)N2CCC(C(=O)Nc3ccc(OC)c(OC)c3)CC2)cc1` came in with a z-score of -0.606.

As to `Cc1ccc(C)c(NC(=O)COc2cccc3c2CCN(Cc2ccccc2)C3=O)c1`, the z-score was 0.164.

Turning to `CC(=O)c1c(N2CCCCC2)nc(=O)n(-c2ccccc2)c1C`, the z-score is -0.104.

With `Cc1ccc(C(=O)Oc2ccccc2C(=O)N2CCOCC2)cc1`, the z-score was -1.23.

In turn, `Cc1cc2ccc(C)c(C)c2nc1SCC(=O)c1cccs1` registered a z-score of 0.0341.

Compound `COC(=O)CCC(=O)Nc1cccc(Br)c1` gave a z-score of 0.0606.

`O=C(CSc1nc(-c2ccccc2)cc(=O)[nH]1)Nc1ccccn1`: the z-score was -0.246.

For `Cc1ccc(C(=O)COC(=O)c2cccc(N3C(=O)c4c(C)nc5ccccc5c4C3=O)c2)cc1C`, the z-score was -0.0197.

Turning to `COc1ccc(/C=c2\s/c(=C/C(=O)c3ccc(C)cc3)[nH]c2=O)c(OC)c1`, the z-score was 0.0664.

The compound `COc1ccc(N2CCc3c(C)nc4c(OC)cc(OC)cc4c32)c(OC)c1` showed a z-score of 0.775.

For `Cc1ccccc1NC(=O)CSc1nc(N)c2c3c(sc2n1)CSC(C)(C)C3`, the z-score was -0.0425.

In turn, `COc1ccccc1OCCOC(=O)Nc1ccccc1` had a z-score of -0.301.

For the compound `N#CCCN1CCNCC1`, the z-score stood at 0.274.

In turn, `CCOc1cc(C(=S)N2CCOCC2)ccc1OS(=O)(=O)c1ccccc1[N+](=O)[O-]` came in with a z-score of -0.0558.

The compound `O=C(O)c1cccc(N2C(=O)c3cccnc3C2=O)c1` returned a z-score of -0.48.

With `O=C(CC1C(=O)NCCN1C(=O)Nc1ccccc1)Nc1cccc(C(F)(F)F)c1` (stereo not given), the z-score was -0.0748.

`CCc1cccc2c(C#N)cn(CC(=O)NCc3ccco3)c12` came in with a z-score of -0.475.

The compound `O=C(Nc1cccc(O)c1)C(Cc1ccccc1)N1C(=O)c2cccc3cccc(c23)C1=O` (stereo not given) came in with a z-score of -0.359.

As to `O=C(COC(=O)CCNS(=O)(=O)c1cccc(C(F)(F)F)c1)NC(=O)NC1CCCCC1`, the z-score is -0.0168.

In turn, `CN1CCN(c2ccc(S(=O)(=O)Nc3ccccc3)cc2[N+](=O)[O-])CC1` registered a z-score of 0.0391.

In turn, `CSc1ccccc1NC(=O)c1cc(C2CC2)on1` had a z-score of 0.292.

On to `CCCOc1cccc(/C=N/NC(=O)c2csc(C)c2C)c1`, for which the z-score was 0.113.

In the case of `O=C1CC(c2ccco2)CC(O)=C1C=Nc1cc(Cl)cc(Cl)c1` (stereo not given), the z-score was -0.467.

As for `CN(C)c1nc(C(=O)NN)nc(N(C)C)n1`, the z-score came out at 0.274.

`COc1ccccc1-n1cc(-c2ccc(Cl)cc2)[nH]c1=O` displayed a z-score of 1.31.

The compound `COc1ccc(C)cc1S(=O)(=O)N(C)CC(=O)NCc1ccco1` came in with a z-score of 0.0855.

Regarding `CCC(C)OC(=O)C1=C(C)OC23OC(N)=C(C#N)C12C(=O)c1ccccc13` (stereo not given), the z-score is -1.09.

As to `COc1ccc(C2c3c(oc4ccc(C)cc4c3=O)C(=O)N2c2cc(C)ccn2)cc1OC` (stereo not given), the z-score is -0.0585.

`C=CCn1c(CSCc2ccccc2)nnc1SCC(=O)N1CCN(c2ccccc2)CC1`: the z-score was -0.469.

The compound `O=C(O)Cc1ccc(C(=O)c2ccc(Cl)cc2)s1` yielded a z-score of -0.34.

The compound `CCCn1nnc(NC(=O)c2cc(Br)cc(Br)c2OC)n1` displayed a z-score of 0.464.

In turn, `COc1cccc(NC(=O)CN(c2ccc(C)cc2)S(=O)(=O)c2c(C)nn(C)c2C)c1` came in with a z-score of -0.318.

In the case of `Cn1c(COc2ccc(Cl)cc2)nnc1SCC(=O)NC1CCCCC1`, the z-score was -0.0339.

On to `CCOc1cc(Br)c(C(=O)O)cc1OC`, for which the z-score is -0.185.

With `CC1=C([N+](=O)[O-])C(c2ccccc2)C2=C(N1)c1ccccc1C2=O` (stereo not given), the z-score is -0.15.

On to `CCCCn1c(SCC(=O)Nc2cc(C(F)(F)F)ccc2Cl)nnc1C(CC)N(C)C` (stereo not given), for which the z-score is -0.584.

For `Cn1c(=O)oc2cc(S(=O)(=O)N3CCCC(C(=O)NCCN4CCOCC4)C3)ccc21` (stereo not given), the z-score was -0.355.

`CCc1ccccc1NC(=O)COc1ccc2c(=O)c(Oc3cc(C)ccc3C)coc2c1` returned a z-score of -0.0463.

Turning to `Cc1ccc(NCCc2ccc(C)nc2)cc1`, the z-score was -0.041.

In the case of `C=CCn1c(CC(=O)Nc2cccc(OC)c2)nnc1SCC(=O)NC1CCCCC1`, the z-score is -0.405.

Consider `Cc1ccc(C(=O)CC2(O)C(=O)N(CN3CCOCC3)c3ccccc32)cc1` (stereo not given), for which the z-score came to 0.833.

Turning to `COc1cc(C(=O)OC(C)CN2CCN(C)CC2)cc(OC)c1OC` (stereo not given), the z-score amounted to 0.257.

Compound `Cc1ccnc(NS(=O)(=O)c2ccc(NC(=O)c3ccc(C)o3)cc2)n1` had a z-score of -0.0181.

Consider `COc1ccc(-c2cc(C)nc(SCc3cccc(C(=O)O)c3)n2)cc1`, for which the z-score was -0.452.

`CC(C)c1ccc2nc3sc(C(=O)N4CCc5ccccc5C4)c(N)c3cc2c1`: the z-score stood at 0.414.

In turn, `O=C(CCSCCc1ccccn1)Nc1c(F)c(F)c(F)c(F)c1F` had a z-score of -0.0702.

Regarding `CCOc1ccc(N(CC(=O)O)S(=O)(=O)c2cccnc2)cc1`, the z-score was -0.401.

On to `Cc1nn(C)cc1C(=O)NNC(=S)Nc1ccccc1`, for which the z-score is -0.277.

The compound `CC(O/N=C/c1ccccc1OC(F)F)C(=O)Nc1cccc(S(=O)(=O)N2CCOCC2)c1` (stereo not given) had a z-score of 0.0638.

`CCCCN(CCCC)CC(O)CN(c1cc([N+](=O)[O-])ccc1OC)S(=O)(=O)c1ccccc1` (stereo not given) returned a z-score of 0.91.

As for `Clc1ccc(Oc2ncnc3oc(-c4ccccc4)cc23)cc1`, the z-score was 0.177.

The compound `O=c1cnnc(SCCc2ccccc2)[nH]1` returned a z-score of -0.0811.

In the case of `CCCn1nnc(NC(=O)c2ccc(Br)cc2)n1`, the z-score is -0.128.

Take `Cn1c(-c2ccc(F)cc2)cnc1NCc1ccc(F)cc1`: the z-score is -0.0912.

Turning to `CCC(C)NC(=O)C1CCN(S(=O)(=O)c2cccnc2)CC1` (stereo not given), the z-score is -0.122.

For the compound `CN(Cc1ccccc1)Cc1nc2c(c(=O)n(C)c(=O)n2C)n1Cc1ccc(F)cc1`, the z-score is -1.19.

`CN1CCN(Cc2nc3c(c(=O)n(C)c(=O)n3C)n2CCCc2ccccc2)CC1` registered a z-score of -0.283.

Compound `O=C(Cc1c(F)cccc1Cl)N1CCN(C(=O)c2ccco2)CC1` showed a z-score of -0.28.

In turn, `Cc1nc(-c2ccc(C(=O)O)cc2)cs1` yielded a z-score of 1.35.

Regarding `COc1cnc(-c2ccccc2)nc1Oc1cccc(C)c1C`, the z-score was -0.012.

`COc1cc(N2C(=O)NC3CC2(C)Oc2ccccc23)cc(OC)c1OC` (stereo not given): the z-score was 0.0792.

For `CCn1c(SCC(=O)NC2CCCc3ccccc32)nnc1-c1cccs1` (stereo not given), the z-score is -0.152.

Compound `Cc1ccc(C2=CC(c3ccc(N(C)C)cc3)n3nnnc3N2)cc1` (stereo not given) had a z-score of -0.282.

For the compound `Cc1ccc(C(=O)NC(Cc2c[nH]c3ccccc23)C(=O)O)o1` (stereo not given), the z-score is 0.57.

Take `O=S(=O)(Cc1ccccc1)N1CCCCCC1`: the z-score was 0.337.

`COC(=O)COc1ccc(S(=O)(=O)N2CCc3ccccc3C2)cc1C` gave a z-score of -0.71.

Take `Cn1c(=O)c2c(nc(NCCNC(=O)c3ccco3)n2Cc2ccccc2Cl)n(C)c1=O`: the z-score was -0.224.

The compound `Cc1cccc2cc3c(NC(=O)CC(C)C)nn(C)c3nc12` came in with a z-score of -0.363.

Compound `CC1(C)Cc2c(c(N3CCCCC3)[nH]c(=S)c2C#N)CS1` came in with a z-score of -0.239.

The compound `Cn1cnnc1SCc1ccccc1Br` displayed a z-score of 0.198.

On to `COCCCNC(NC(=O)c1ccc(Cl)cc1)C(Cl)(Cl)Cl` (stereo not given), for which the z-score was -0.155.

As for `CCN(Cc1ccccc1)C(c1ccc(Cl)cc1)c1nnnn1C(C)(C)C` (stereo not given), the z-score is -0.18.

For `CCCn1nc(C(=O)NCCN2CCOCC2)c2ccccc2c1=O`, the z-score worked out at 0.608.

Regarding `O=C(c1ccco1)N1CCN(c2ncnc3scc(-c4cccs4)c23)CC1`, the z-score came to 0.729.

`O=c1[nH]c(CN2CCN(C/C=C/c3ccccc3)CC2)nc2cc(Cl)ccc12` displayed a z-score of -0.475.

`Cc1[nH]c2ccccc2c1C(c1ccncc1)N1CCN(c2ccc(F)cc2)CC1` (stereo not given) returned a z-score of 0.133.

Turning to `O=C(CSc1nnc(-c2ccccc2)n1-c1ccc(Cl)cc1)NNC(=S)Nc1ccccc1`, the z-score is -0.142.

For `Cc1ccc(S(=O)(=O)N2CCCC(C(=O)O)C2)s1` (stereo not given), the z-score is -0.401.

`COc1ccc(NC(=O)CC2C(=O)N(c3cccc(OC)c3)C(=O)N2CCC(C)C)cc1` (stereo not given) registered a z-score of -0.168.

On to `O=C(O)CCC(=O)Nc1nc2nc(-c3ccccc3)cc(-c3ccccc3)n2n1`, for which the z-score was -0.35.

The compound `O=C(OCC(=O)N1CCCc2ccccc21)c1cccnc1Cl` had a z-score of -0.516.

As for `CCCCn1c(N)c(N(CCC(C)C)C(=O)CSc2nnc3ccccn23)c(=O)[nH]c1=O`, the z-score is -0.0171.

Regarding `O=S(=O)(Nc1ccc(S(=O)(=O)Nc2ccccc2)cc1)c1ccccc1`, the z-score is -0.31.

Source of the values: PubChem BioAssay AID488969 (Vanderbilt High Throughput Screening Facility, 2010).
